Whole data set: some 81,000 sequences, median “one-hybrid fitness for binding NBS DNA” near -0.1, cut for the highest 2% near 0.36. The list shows a part of the results.
B1: Caulobacter ParB omega fusion; a variant is named by its letters at X, in order, B8GW30 (parent)
chain: MESVVVGEPGMSEGRRGLGRGLSALLGEVDAAPAQAPGEQLGGSREAPIEILQRNPDQPRRTFREEDLEDLSNSIREKGVLQPILVRPSPDTAGEYQIVAGERAWRAAQRAGLKTVPIMVRELDDLAVLEIGIIENVQRADLNVLEEALSYKVLMEKFERTQENIAQTIGKSXSHVANXMRLLXLPDEVQSYLVSGELTAXHARAIAAAADPVALAKQIIEGGLSVRETEALARKAPNLSAGKSKGGRPPRVKDTDTQALESDLSSVLGLDVSIDHRGSTGTLTITYATLEQLDDLCNRLTRGI

Variants of: B1
Experiment: one-hybrid fitness for binding NBS DNA (the Noc-binding site; scaled: cognate 1, non-cognate 0); higher = stronger binding
Settings: with NBS DNA site
Summary of the method: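 Selection: bacterial one-hybrid in E. coli USO, HIS3 reporter with the site 19 bp from the promoter, 48 hours at 37°C on M9-minus-histidine plus 0.1 mM IPTG and 5 mM 3-AT. Libraries were Caulobacter ParB with four randomised specificity codons, sequenced on Illumina before and after selection. Fitness is the rescaled log change in variant-to-wild-type read ratio, anchored to the cognate and non-cognate sites.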

Variant | one-hybrid fitness for binding NBS DNA
WHNS | ≤ 0.2
FTYT | ≤ 0.2
LNFS | ≤ 0.2
VNMG | ≤ 0.2
IRHH | ≤ 0.2
PELN | ≤ 0.2
AIMS | ≤ 0.2
ESSV | ≤ 0.2
FMTV | ≤ 0.2
RHNH | ≤ 0.2
CAGD | ≤ 0.2
IWPL | ≤ 0.2
YCYC | ≤ 0.2
LNLY | ≤ 0.2
GQFT | ≤ 0.2
PSQI | ≤ 0.2
KIRG | ≤ 0.2
HEDG | ≤ 0.2
NDGL | ≤ 0.2
KWST | ≤ 0.2
PNSE | ≤ 0.2
RYGD | ≤ 0.2
DHDV | ≤ 0.2
TDSD | ≤ 0.2
GYTY | ≤ 0.2
LSKP | ≤ 0.2

Variant | one-hybrid fitness for binding NBS DNA
ALKL | ≤ 0.2
DKTW | ≤ 0.2
QKSL | ≤ 0.2
CHKR | 0.212
YEAH | ≤ 0.2
NTWH | ≤ 0.2
FQNR | ≤ 0.2
HERA | ≤ 0.2
PMWK | ≤ 0.2
NCTY | ≤ 0.2
LKSN | ≤ 0.2
STHL | ≤ 0.2
CLET | ≤ 0.2
WLLW | ≤ 0.2
AFCS | ≤ 0.2
ALNN | ≤ 0.2
DMSY | ≤ 0.2
DCLR | ≤ 0.2
KAAL | ≤ 0.2
EGVM | ≤ 0.2
GTDT | ≤ 0.2
RQGD | ≤ 0.2
QVYY | ≤ 0.2
LNQE | ≤ 0.2
TEAL | ≤ 0.2
YTDF | ≤ 0.2

Variant | one-hybrid fitness for binding NBS DNA
LQFR | ≤ 0.2
HIHI | ≤ 0.2
MHLV | ≤ 0.2
DYQT | ≤ 0.2
ALPY | ≤ 0.2
RLGC | ≤ 0.2
RVEK | ≤ 0.2
IIHV | ≤ 0.2
SEIT | ≤ 0.2
KIGG | ≤ 0.2
AMCL | ≤ 0.2
KQFG | ≤ 0.2
TWPD | ≤ 0.2
PNRK | ≤ 0.2
RDKY | ≤ 0.2
TELY | ≤ 0.2
RHTT | 0.427
HNRY | ≤ 0.2
CGLL | ≤ 0.2
YPES | ≤ 0.2
KWTR | ≤ 0.2
GDPA | ≤ 0.2
RKHR | 0.648
TKFT | ≤ 0.2
QFME | ≤ 0.2
PTID | ≤ 0.2

Variant | one-hybrid fitness for binding NBS DNA
IVWT | ≤ 0.2
TFGR | ≤ 0.2
GEFS | ≤ 0.2
TQVW | ≤ 0.2
MCMV | ≤ 0.2
FTGT | ≤ 0.2
HRLY | ≤ 0.2
RFYS | ≤ 0.2
VWRG | ≤ 0.2
ISRL | ≤ 0.2
WAQC | ≤ 0.2
QGTF | ≤ 0.2
KLES | ≤ 0.2
QKSK | ≤ 0.2
WCLC | ≤ 0.2
GRDC | ≤ 0.2
GHTF | ≤ 0.2
CAKM | ≤ 0.2
TCNH | ≤ 0.2
TDLT | ≤ 0.2
QQKF | 0.356
ANST | ≤ 0.2
GFGC | ≤ 0.2
LPYS | ≤ 0.2
FYCC | ≤ 0.2
DLKT | ≤ 0.2

Variant | one-hybrid fitness for binding NBS DNA
AYWW | ≤ 0.2
QVES | ≤ 0.2
DPIL | ≤ 0.2
RKIW | ≤ 0.2
CIVS | ≤ 0.2
PKQT | ≤ 0.2
WLTT | ≤ 0.2
VGVS | ≤ 0.2
DHHQ | ≤ 0.2
PCNM | ≤ 0.2
RYQS | 0.386
KVLS | ≤ 0.2
AVRW | ≤ 0.2
HFNC | ≤ 0.2
CKCR | ≤ 0.2
DALH | ≤ 0.2
SNNY | ≤ 0.2
REFL | ≤ 0.2
MMPI | ≤ 0.2
VDNT | ≤ 0.2
ITRG | ≤ 0.2
RYFF | ≤ 0.2
FDHC | ≤ 0.2
FNPA | ≤ 0.2
SLCE | ≤ 0.2
RDAD | ≤ 0.2

Variant | one-hybrid fitness for binding NBS DNA
PLLC | ≤ 0.2
QAYM | ≤ 0.2
NICA | ≤ 0.2
RYWH | ≤ 0.2
TNKE | ≤ 0.2
MAAT | ≤ 0.2
AGTT | ≤ 0.2
ADVT | ≤ 0.2
TLRG | ≤ 0.2
LWQS | ≤ 0.2
CFGT | ≤ 0.2
AHNT | ≤ 0.2
TMRM | ≤ 0.2
YQFV | ≤ 0.2
PLDY | ≤ 0.2
LACC | ≤ 0.2
DCHT | ≤ 0.2
QCRP | 0.352
AAQL | ≤ 0.2
VRHN | ≤ 0.2
FDQE | ≤ 0.2
LQVV | ≤ 0.2
EPVS | 0.215

— a collection of fitness landscapes (doi:10.1016/j.celrep.2020.107928)
